{
  "source": "the supplement of paper PMC8183993",
  "note": "Where “and” joins values, the source holds several entries; their conditions need not be identical. Equal entries are not always repeated. Structures can show the parent of a compound that is named as a salt. ± gives the standard deviation of the averaged measurements. Over roughly 3,100 compounds, “mean cytoplasmic OPP incorporation (global translation) relative to DMSO” has its median near 100; the lowest 2% begin near 56. This is one part of the list.",
  "data": [
    {"tested_on": "U2OS", "assay": "mean cytoplasmic OPP incorporation (global translation) relative to DMSO (% of DMSO); higher = more protein synthesis", "settings": "10 µM; 24 h", "procedure": "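Primary image-based screen in U2OS cells: compounds at 10 uM for 24 h, then a 1 h o-propargyl-puromycin (OPP) pulse, click labelling, and high-throughput microscopy. Mean cytoplasmic OPP intensity and nuclei count were normalised to DMSO wells within each plate (DMSO = 100) and averaged over triplicate plates.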", "values": [
      {"smiles": "Cc1cc2c(cc1C1(c3ccc(C(=O)O)cn3)CC1)C(C)(C)CCC2(C)C", "mean cytoplasmic OPP incorporation": 109},
      {"smiles": "CO[C@@]1(NC(=O)C(C(=O)O)c2ccc(O)cc2)C(=O)N2C(C(=O)O)=C(CSc3nnnn3C)CO[C@@H]21", "note": "(stereo not given in full) [Moxalactam disodium salt]", "mean cytoplasmic OPP incorporation": 103},
      {"smiles": "O=C(NC[C@H](O)CN1CCc2ccccc2C1)c1ccnc(NC2CCC2)c1", "mean cytoplasmic OPP incorporation": 107},
      {"smiles": "CN(CCc1ccc(Cl)c(Cl)c1)CC(O)COc1ccc(NS(C)(=O)=O)cc1", "note": "(stereo not given)", "mean cytoplasmic OPP incorporation": "102 and 107"},
      {"smiles": "COc1ccc([C@@H]2CNC(=O)C2)cc1OC1CCCC1", "note": "[(R)-(-)-Rolipram]", "mean cytoplasmic OPP incorporation": 98.9},
      {"smiles": "NC(=O)c1ccc2nc(-c3ccc(Oc4ccc(Cl)cc4)cc3)[nH]c2c1", "mean cytoplasmic OPP incorporation": 98.1},
      {"smiles": "CC(=O)NCC(=O)N1[C@@H]2CC[C@H]1c1ccc(Nc3ncc(C(F)(F)F)c(NC4CCC4)n3)cc12", "mean cytoplasmic OPP incorporation": 71.1},
      {"smiles": "Nc1ccc(S(=O)(=O)Nc2ncccn2)cc1", "note": "[Sulfadiazine]", "mean cytoplasmic OPP incorporation": 99.4},
      {"smiles": "CC(C)[C@H](C(=O)Nc1ccc(C(=O)NO)cc1)c1ccccc1", "mean cytoplasmic OPP incorporation": 53},
      {"smiles": "C#C[C@]1(OC(C)=O)CC[C@H]2[C@@H]3CCC4=C[C@@H](OC(C)=O)CC[C@@H]4[C@H]3CC[C@@]21C", "note": "[Ethynodiol diacetate]", "mean cytoplasmic OPP incorporation": "99.36 ± 0.7"},
      {"smiles": "CCOC(=O)C=Cc1ccc(O)c(OC)c1", "note": "[Ferulic acid ethylester]", "mean cytoplasmic OPP incorporation": 103},
      {"smiles": "N[C@H]1CCN(O)C1=O", "mean cytoplasmic OPP incorporation": 98.7},
      {"smiles": "Oc1ccc(Nc2nc(-c3ccc(Cl)cc3)cs2)cc1", "mean cytoplasmic OPP incorporation": "87.5 ± 3.6"},
      {"smiles": "N#Cc1ccc2[nH]c(O)c(-c3ccc(CN4CCOCC4)cn3)c2c1", "mean cytoplasmic OPP incorporation": 109},
      {"smiles": "COc1cc2ncnc(Nc3ccc(Cl)cc3F)c2cc1OC", "mean cytoplasmic OPP incorporation": "97.5 and 93.4"},
      {"smiles": "CO[C@H]1C[C@@H]2CC[C@@H](C)[C@@](O)(O2)C(=O)C(=O)N2CCCC[C@H]2C(=O)O[C@H]([C@H](C)C[C@@H]2CC[C@@H](O)[C@H](OC)C2)CC(=O)[C@H](C)/C=C(\\C)[C@@H](O)[C@@H](OC)C(=O)[C@H](C)C[C@H](C)/C=C/C=C/C=C/1C", "note": "[Rapamycin]", "mean cytoplasmic OPP incorporation": 94.8},
      {"smiles": "CO[C@H]1C[C@@H]2CC[C@@H](C)[C@@](O)(O2)C(=O)C(=O)N2CCCC[C@H]2C(=O)O[C@H]([C@H](C)C[C@@H]2CC[C@@H](O)[C@H](OC)C2)CC(=O)[C@H](C)/C=C(\\C)[C@@H](O)[C@@H](OC)C(=O)[C@H](C)C[C@H](C)/C=C/C=C/C=C/1C", "note": "[Rapamycin (Sirolimus)]", "mean cytoplasmic OPP incorporation": "93.7 ± 1.3"},
      {"smiles": "Cc1cccc(CCN2CCC(C(=O)c3ccc(NS(C)(=O)=O)cc3)CC2)n1", "note": "[E-4031 dihydrochloride]", "mean cytoplasmic OPP incorporation": 95.9},
      {"smiles": "N[C@@H]1CCCN(c2c(/C=C3\\SC(=O)NC3=O)cccc2-c2ccccc2)C1", "mean cytoplasmic OPP incorporation": 99.8},
      {"smiles": "Cc1[nH]c(/C=C2\\C(=O)Nc3ccccc32)c(C)c1CCC(=O)O", "mean cytoplasmic OPP incorporation": 102},
      {"smiles": "CC(=O)N1CCN(c2ccc(OCC3COC(Cn4ccnc4)(c4ccc(Cl)cc4Cl)O3)cc2)CC1", "note": "(stereo not given) [Ketoconazole]", "mean cytoplasmic OPP incorporation": "114 ± 2.2"},
      {"smiles": "CC1=C(C)C(=O)C(CCCCC#CCCCC#CCO)=C(C)C1=O", "mean cytoplasmic OPP incorporation": 101},
      {"smiles": "C#C[C@]1(O)CC[C@H]2[C@@H]3CCc4cc(OC)ccc4[C@H]3CC[C@@]21C", "note": "[Ethynylestradiol 3-methyl ether]", "mean cytoplasmic OPP incorporation": 104},
      {"smiles": "C#C[C@]1(O)CC[C@H]2[C@@H]3CCc4cc(OC)ccc4[C@H]3CC[C@@]21C", "note": "[Mestranol]", "mean cytoplasmic OPP incorporation": 103},
      {"smiles": "C1=N/C2=N/c3ccc(OCCN4CCCC4)c(c3)COC/C=C/COCc3cccc(c3)C(=C1)N2", "note": "[Pacritinib (SB1518)]", "mean cytoplasmic OPP incorporation": 73.3},
      {"smiles": "COc1cc(C=O)ccc1O", "note": "[Vanillin]", "mean cytoplasmic OPP incorporation": 101},
      {"smiles": "CN(C)CCCCSC(=N)N", "mean cytoplasmic OPP incorporation": 99.4},
      {"smiles": "COc1ccc2cccc(CCNC(C)=O)c2c1", "note": "[Agomelatine]", "mean cytoplasmic OPP incorporation": 89.6},
      {"smiles": "CCCCCCCCCCCCCCCC[N+](C)(C)CCN(Cc1ccc(OC)cc1)c1ncccn1", "note": "[Thonzonium bromide]", "mean cytoplasmic OPP incorporation": 95.6},
      {"smiles": "O=C(O)P(=O)(O)O", "note": "[Foscarnet Sodium]", "mean cytoplasmic OPP incorporation": 100},
      {"smiles": "CC(C)(C)NS(=O)(=O)c1cncc(-c2cc(F)c3nc(N)nn3c2)c1", "mean cytoplasmic OPP incorporation": 103},
      {"smiles": "CCN(CC)CCCC(C)Nc1c2ccc(Cl)cc2nc2ccc(OC)cc12", "note": "(stereo not given) [Quinacrine dihydrochloride dihydrate]", "mean cytoplasmic OPP incorporation": 29.5},
      {"smiles": "COC(=O)[C@H]1[C@H]2C[C@@H]3c4[nH]c5cc(OC)ccc5c4CCN3C[C@H]2C[C@@H](OC(=O)c2cc(OC)c(OC)c(OC)c2)[C@@H]1OC", "note": "[Reserpine]", "mean cytoplasmic OPP incorporation": "101 ± 4.6"},
      {"smiles": "COc1cc2c(cc1OC)-c1cc3ccc(OC)c(OC)c3c[n+]1CC2", "note": "[Palmatine chloride]", "mean cytoplasmic OPP incorporation": 94.4},
      {"smiles": "CNC(=C[N+](=O)[O-])NCCSCc1ccc(CN(C)C)o1", "note": "[Ranitidine hydrochloride]", "mean cytoplasmic OPP incorporation": "93.5 ± 16"},
      {"smiles": "C=CCc1ccc(O)c(-c2ccc(O)c(CC=C)c2)c1", "note": "[Honokiol]", "mean cytoplasmic OPP incorporation": "102 ± 6.4"},
      {"smiles": "CC(C)C[C@H](NC(=O)[C@@H](O)[C@H](N)Cc1ccccc1)C(=O)O", "note": "[Bestatin]", "mean cytoplasmic OPP incorporation": 99.6},
      {"smiles": "CN(C)CCCSc1ccccc1NC(=O)/C=C/c1ccccc1", "note": "[Cinanserin hydrochloride]", "mean cytoplasmic OPP incorporation": 99.1},
      {"smiles": "CSc1cccc(Nc2ncc3cc(-c4c(Cl)cccc4Cl)c(=O)n(C)c3n2)c1", "mean cytoplasmic OPP incorporation": 116},
      {"smiles": "OCc1ccc(-c2ccc(-c3ccc(CO)s3)o2)s1", "mean cytoplasmic OPP incorporation": 87.7},
      {"smiles": "O=c1c(-c2ccc(O)cc2)coc2cc(O)cc(O)c12", "note": "[Genistein]", "mean cytoplasmic OPP incorporation": "100 ± 3.9"},
      {"smiles": "CCOC(=O)Nc1ccc2c(c1)N(C(=O)CCN1CCOCC1)c1ccccc1S2", "note": "[Moricizine hydrochloride]", "mean cytoplasmic OPP incorporation": 95.6},
      {"smiles": "C[C@H](NC(=O)Cc1cc(F)cc(F)c1)C(=O)N[C@@H]1C(=O)N(C)c2ccccc2-c2ccccc21", "mean cytoplasmic OPP incorporation": 117},
      {"smiles": "Clc1cc2c(NC3CCCC3)nnc(-c3ccncc3)c2cc1Cl", "mean cytoplasmic OPP incorporation": 114},
      {"smiles": "O=C(O)c1ccc(Nc2ncc3c(n2)-c2ccc(Cl)cc2C(c2c(F)cccc2F)=NC3)cc1", "mean cytoplasmic OPP incorporation": "92.1 ± 2.5"},
      {"smiles": "CC(=O)NNC(=O)N1Cc2ccccc2Oc2ccc(Cl)cc21", "mean cytoplasmic OPP incorporation": 99.2},
      {"smiles": "OC1CCC(Nc2nc(-c3ccccc3)nc3[nH]ccc23)CC1", "note": "(stereo not given)", "mean cytoplasmic OPP incorporation": 113},
      {"smiles": "N[C@@H]1CN(c2c(F)cc3c(=O)c(C(=O)O)cn([C@@H]4C[C@@H]4F)c3c2Cl)CC12CC2", "note": "[Sitafloxacin hydrate]", "mean cytoplasmic OPP incorporation": 100},
      {"smiles": "CNC[C@H](O)c1cccc(O)c1", "note": "[Phenylephrine HCl]", "mean cytoplasmic OPP incorporation": 101},
      {"smiles": "CCn1cc(-c2ccnc3[nH]c(-c4cccc(CN(C)C)c4)cc23)c(-c2ccc(NC(=O)N(C)C)cc2)n1", "mean cytoplasmic OPP incorporation": 93}
    ]}
  ]
}
